# In all, about 33,000 sequences were measured (“E-score (-0.5 to 0.5)”: median about -0.053, highest 2% from about 0.37 on). The list shows a part of the results.
# Target: Hap1 (UniProt P0CE41)
# Experiment: PBM E-score (8-mer binding enrichment) (E-score (-0.5 to 0.5)); higher = stronger / more preferred TF binding; most listed sequences are background and not binding sites
# Settings: protein concentration: 200 nM; construct: GST-DNA-binding domain
# In short: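 E-scores (a modified Wilcoxon-Mann-Whitney statistic) were assigned by the Universal PBM Analysis Suite to every ungapped eight-base word pooled with its reverse complement. The input came from universal all-10-mer Agilent arrays made double-stranded by primer extension and probed with GST-tagged yeast transcription factors at about 100-200 nM. Fluorescent anti-GST detected bound protein, and masliner normalised the scans.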
# Chain of UniProt P0CE41 (P0CE41 whole entry): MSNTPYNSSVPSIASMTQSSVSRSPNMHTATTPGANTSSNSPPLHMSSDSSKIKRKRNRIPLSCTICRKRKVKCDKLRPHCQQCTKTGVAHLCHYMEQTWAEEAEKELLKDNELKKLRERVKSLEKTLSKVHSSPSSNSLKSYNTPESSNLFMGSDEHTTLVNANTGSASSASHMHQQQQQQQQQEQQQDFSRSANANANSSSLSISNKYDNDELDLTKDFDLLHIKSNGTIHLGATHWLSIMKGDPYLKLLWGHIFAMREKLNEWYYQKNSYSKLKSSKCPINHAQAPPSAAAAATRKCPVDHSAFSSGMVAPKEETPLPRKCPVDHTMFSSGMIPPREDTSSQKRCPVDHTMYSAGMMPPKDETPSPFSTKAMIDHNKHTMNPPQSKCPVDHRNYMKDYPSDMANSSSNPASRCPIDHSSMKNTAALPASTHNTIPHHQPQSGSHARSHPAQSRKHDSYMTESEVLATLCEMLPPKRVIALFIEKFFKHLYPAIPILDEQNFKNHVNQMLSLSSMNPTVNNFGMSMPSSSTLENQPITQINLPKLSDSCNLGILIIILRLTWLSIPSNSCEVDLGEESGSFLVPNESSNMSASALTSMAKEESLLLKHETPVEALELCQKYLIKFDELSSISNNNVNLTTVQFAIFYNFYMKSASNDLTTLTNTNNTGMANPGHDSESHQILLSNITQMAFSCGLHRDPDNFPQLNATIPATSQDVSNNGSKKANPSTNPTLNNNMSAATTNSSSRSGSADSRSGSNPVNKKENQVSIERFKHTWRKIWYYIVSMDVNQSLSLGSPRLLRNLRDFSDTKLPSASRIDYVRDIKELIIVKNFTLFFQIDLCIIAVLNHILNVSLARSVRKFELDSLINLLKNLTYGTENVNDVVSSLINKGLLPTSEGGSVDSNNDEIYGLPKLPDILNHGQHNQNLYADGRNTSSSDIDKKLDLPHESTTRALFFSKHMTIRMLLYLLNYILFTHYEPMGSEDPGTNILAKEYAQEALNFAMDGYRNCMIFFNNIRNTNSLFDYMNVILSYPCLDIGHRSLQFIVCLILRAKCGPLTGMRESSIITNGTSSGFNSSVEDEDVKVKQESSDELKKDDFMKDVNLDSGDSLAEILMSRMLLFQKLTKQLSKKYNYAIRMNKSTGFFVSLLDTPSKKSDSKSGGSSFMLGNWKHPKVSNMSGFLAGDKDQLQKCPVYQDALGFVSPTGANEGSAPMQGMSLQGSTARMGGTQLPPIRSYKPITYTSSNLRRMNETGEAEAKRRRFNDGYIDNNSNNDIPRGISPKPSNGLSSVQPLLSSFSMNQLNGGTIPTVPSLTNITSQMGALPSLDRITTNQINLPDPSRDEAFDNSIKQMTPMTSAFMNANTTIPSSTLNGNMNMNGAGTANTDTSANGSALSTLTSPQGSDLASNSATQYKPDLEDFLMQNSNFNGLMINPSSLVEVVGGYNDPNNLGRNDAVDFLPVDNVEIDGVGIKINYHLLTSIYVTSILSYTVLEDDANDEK
row,Sequence,PBM E-score
1,CCACATTA,-0.224
2,CGCGAGTA,0.146
3,AACGACGG,0.163
4,CCTCGGGC,0.31
5,CATTGTGA,-0.0941
6,GATGACAA,-0.0665
7,AGGCGCTC,-0.0481
8,GGCCTCAC,-0.134
9,AAACTGTG,-0.187
10,ATCTGCTG,-0.18
11,ATATGCGA,0.167
12,TAACTCAA,-0.0398
13,CCTTGCAG,-0.134
14,GCGAACAC,-0.0338
15,CTCCCCCA,-0.0682
16,CCAGGGGC,-0.248
17,CTCACCTC,-0.152
18,CATAGAGC,-0.237
19,AATGCACC,-0.0449
20,CTGGAAGC,-0.28
21,AAAGCTAT,0.00647
22,AATTAACC,0.244
23,ATAAGAAT,0.00369
24,ATACGACA,-0.185
25,ACATTACA,-0.0941

row,Sequence,PBM E-score
1,ACCAGTAA,0.0185
2,AAAGGCCA,0.0295
3,AGCAACGC,0.0695
4,ACTGACTC,-0.143
5,GATCCATA,0.0859
6,ACCCGGTA,0.376
7,TGCTTGAA,-0.0898
8,GAACGCCA,-0.0158
9,GAGGTTCC,0.0516
10,CCTCTTGC,-0.064
11,CTGAGGTC,-0.295
12,CAAGTGAC,-0.162
13,CTGGGTTA,-0.0941
14,CTATACCA,-0.246
15,CGAGTCAG,-0.0635
16,AGTAGTAT,0.00074
17,GGACGTAC,0.0978
18,AACTTGAT,-0.137
19,CACTCCAG,-0.144
20,ACAGCAGC,-0.127
21,CAGCTGAG,-0.27
22,CGCCAATA,0.0636
23,ACTTACCT,-0.0187
24,CGACGGCG,0.173
25,AATGCCTA,0.0479

row,Sequence,PBM E-score
1,GAAGTAAA,0.0731
2,CTAGGCGC,-0.198
3,AGTGAGAC,-0.208
4,TCATGGGA,-0.285
5,TGAATCCA,-0.111
6,CTGAACCA,-0.2
7,AACGACAT,-0.16
8,AAAAAGTC,0.146
9,CAACGAGC,-0.111
10,GTCCAAAA,0.119
11,AATCGTGC,0.126
12,CTTTCAGA,-0.0911
13,AAGGCTGC,-0.1
14,TGCAGACA,-0.233
15,GACCATGA,0.0326
16,CTAGTCGA,-0.103
17,ACCAGACA,-0.183
18,CATTATCC,0.11
19,CACGGTAC,0.0688
20,GCGTTCTA,0.056
21,AAAGATGG,-0.166
22,GAAGTATA,0.121
23,GAGCATGA,-0.228
24,CCTGCACC,-0.0519
25,CGGTCTAA,0.178

row,Sequence,PBM E-score
1,CGGGCGTA,0.395
2,ACTAAGTG,-0.102
3,TCTTGACA,-0.233
4,GAGGAGCA,-0.00845
5,ATCGTTTC,-0.0452
6,GCAAAGCC,-0.0393
7,AAAACTAG,-0.116
8,CCAGAACA,-0.139
9,GGTCCGGA,0.44
10,CGATGTTC,0.145
11,CTATACAA,-0.157
12,TAATAATA,-0.024
13,ATTGGTGC,0.0244
14,GCGGCGCA,0.119
15,GAACAAGA,0.0382
16,GTTCTGAA,-0.271
17,CGGAGCGC,0.258
18,TAGGCTCA,-0.319
19,CAGCACCA,-0.124
20,CAGATCCG,0.322
21,AAATAGCC,0.093
22,CACAACTG,-0.32
23,GGCAGCAC,-0.133
24,CTTGGAAC,-0.129
25,AATCCGCC,0.261

row,Sequence,PBM E-score
1,AAATGCTT,0.0946
2,CCGATCGG,0.402
3,CTCCATGC,-0.237
4,ACGTTAGT,-0.0823
5,CCCCTTCA,-0.281
6,ACGGATGA,0.228
7,TCAGCACA,-0.218
8,ATCCAGAT,-0.0723
9,GTTCGGAA,0.312
10,GGCTAGGA,-0.272
11,AGTGGCGC,0.0613
12,GCGTACCA,-0.301
13,GGCAGACC,-0.11
14,AGGGTGTG,-0.105
15,GAGTCGGC,0.188
16,CGTCAGAA,-0.181
17,CTCTTTCA,-0.216
18,ACCTTCGT,-0.173
19,AACCTGGT,-0.034
20,ACTAGCCT,-0.034
21,ACCAGGAA,-0.0154
22,ACACCCCT,-0.104
23,CAATCTGA,-0.151
24,CTTTGTCC,0.19
25,CAGCTCAC,-0.128

row,Sequence,PBM E-score
1,ACCAACAG,-0.0664
2,ACCCCGCC,0.198
3,CCCGCCCA,0.00805
4,AGCTGGTC,-0.231
5,AACCTATA,0.00602
6,CGTCTAAG,-0.102
7,ACTGTCCA,-0.173
8,CCAAGACG,-0.22
9,CTTGTCGA,-0.39
10,AGCCTAAG,-0.271
11,TATCGATA,0.0165
12,ACCTGGAT,-0.166
13,GGAGTAGA,0.03
14,ACGCGTAT,0.0832
15,GTTGTCTA,-0.1
16,ATCGACAG,-0.066
17,CACACAGA,-0.227
18,CCCACGTC,-0.0511
19,GACAAAGC,0.123
20,AATGAGGG,-0.196
21,CTTGCACA,-0.136
22,CGCGGCAG,0.1
23,ACTGTTTC,-0.00592
24,AGCCCGAC,0.127
25,ACCTATCT,-0.179

row,Sequence,PBM E-score
1,GACCCCTA,-0.276
2,GATCGAGC,0.127
3,CAGTTCCG,0.248
4,AAATTTGG,-0.205
5,ATGAGTCC,0.0718
6,ATAAGCGC,0.0156
7,AGAGCCAT,-0.15
8,GCCAGTCC,0.112
9,CTGCACTC,-0.0272
10,AGACCCCG,0.272
11,AGACAAAC,-0.0936
12,CGTCGAAC,-0.209
13,CTAGTGGC,-0.169
14,AATAGGCC,-0.0456
15,AACAGGTA,-0.0945
16,ACATGCAG,-0.165
17,CTACCGAG,0.139
18,CTTTAATA,-0.0221
19,CCTCGACC,-0.177
20,CTCAGCGA,-0.00422
21,CCGGATGA,0.356
22,AAGCGTGA,-0.1
23,AGCAAGCC,-0.0878
24,CAAACGAA,-0.26
25,ATGAGGTC,-0.159

row,Sequence,PBM E-score
1,AGTGGTCA,-0.0959
2,CCACCCGG,0.254
3,AACAAACT,-0.148
4,ACTCAAAG,-0.154
5,CCCAGTCA,-0.241
6,CCGGATCC,0.328
7,CAGCGGTC,0.0849
8,ACTTCCGG,0.382
9,AAGGGAGC,-0.167
10,ACCTGAAA,-0.165
11,AAGCATGT,-0.0879
12,GATAAAGC,0.151
13,GTAGTCGA,-0.148
14,AGTACATG,-0.108
15,ACCTGACA,-0.0727
16,GGGTGTAC,0.15
17,ATTACTGG,-0.259
18,ACTATGTG,-0.0936
19,GCACCTTA,-0.02
20,CAGGATTC,-0.0563
21,AGCGCAGG,0.00092
22,CGGCCACG,0.0529
23,CGATCACG,0.122
24,CGCGAAGC,0.15
25,ACAGTCTC,-0.197

row,Sequence,PBM E-score
1,CGGACTAC,0.332
2,CAGCAGGC,-0.0374
3,ACTTAGAG,-0.367
4,ATCCTACC,-0.0802
5,CTCGCAGA,-0.226
6,AGCCGGTG,0.326
7,AGGTGATC,-0.151
8,GAGGGTAC,-0.123
9,ACGTCCAT,-0.149
10,ACTAATGA,-0.0636
11,GGAATTGA,0.263
12,TCCGCTCA,0.0724
13,ATTGAAAC,-0.0236
14,ACGTATTA,0.162
15,GGGTTACA,0.0182
16,CACTCGTA,-0.124
17,CCTACGTA,-0.223
18,CTGGATCA,-0.161
19,AAATGGCG,0.00353

# From the supplement of paper PMC3334620
